The campaign covered roughly 48,000 compounds. About 120 (0.25%) were called active. Another 4% or so got no clear call; they are omitted. Calls come from the whole dose curve; as a rule, active = well fitted activation curve with a large enough effect; inconclusive = small, poorly fitted or top-dose-only effect, or another doubt; inactive = no such curve, though single readings can be large or run the other way. This is one part of the list.
Experiment: Primary qHTS for Identification of Small Molecule Activators of Huntingtin-Antisense Promoter Activity; note: nearly all actives have a fitted effect of over 55% in size
Details: HEK293 HTT-AS promoter firefly luciferase reporter, 24 h; series mostly up to 57.5 µM; activity change, positive = activation: at the top concentration
How it was run: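 Luminescence was read after Dual-Glo reagent and a 10 min room-temperature incubation. Values were normalized to vehicle (0% activity) and zero RLU (-100% activity). Reporter HEK293 cells had been exposed to compounds (up to 57.5 uM final) for 24 h.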

Structure (SMILES) | activity change, positive = activation
O=C(NCc1ccccc1)c1csc(Nc2ccncn2)n1 | inactive: -19.8%
Cc1cccc(N(C)C(=S)Oc2ccc3c(c2)CCC3)c1 | inactive: -20.9%
COc1ccc(CCNC(=O)CCc2c(C)nc3c(c(C)nn3-c3ccccc3)c2C)c(OC)c1 | inactive: -1.46%
Cc1ccc(OCc2ccc(-c3nc(C#N)c(N4CCC(C)CC4)o3)o2)cc1 | inactive: -14.4%
COc1ccc(-c2noc(N3CCN(c4cccc(C)c4C)CC3)n2)cc1OC | inactive: -33.1%
CCc1cccc(C)c1NC(=O)C(C)Sc1nc2c(c(=O)[nH]1)CCCC2 (centres undefined) | inactive: -35.1%
COc1ccccc1C(=O)Nc1nnc(SCc2cc(=O)n3ccc(C)cc3n2)s1 | inactive: 19.6%
CCCNC(=O)CCC(=O)N1Cc2ccccc2Oc2ncccc21 | inactive: -2.18%
COc1ccc(C(=O)CN2C(=O)N(c3cc(C)ccc3C)S(=O)(=O)c3ccccc32)cc1 | inactive: -23.2%
CCc1ccccc1NC(=O)C1CCN(C2=NS(=O)(=O)C(c3ccc(C)c(C)c3)=C2C)CC1 | inactive: -32.4%
C=CC(=O)Nc1cc2c(Nc3ccc(F)c(Cl)c3)ncnc2cc1OCCCN1CCOCC1 | inactive: -40.8%
CC(C)(C)NCC(O)COc1cccc2c1CCC(=O)N2 (centres undefined) | inactive: 3.45%
CCOC(=O)C1CCN(C(=O)CCS(=O)(=O)c2cc3c(cc2Cl)NC(=O)CO3)CC1 | inactive: -10.1%
Cc1ccc(CSc2ncc(Cl)c(C(=O)NCCc3ccc(S(N)(=O)=O)cc3)n2)cc1 | inactive: -13.6%
Cc1ccc(N(CC(=O)NCc2ccc(Cl)cc2)S(=O)(=O)N(C)C)cc1 | inactive: 19.9%
COC(=O)[C@H](CCCN=C(N)N)NS(=O)(=O)c1ccc(C)cc1 | inactive: -2.25%
COc1ccc(NC(=O)CSc2nc(-c3ccc(OC)cc3)[nH]c2-c2ccc(OC)cc2)cc1 | inactive: -21.4%
COc1ccc(-c2cc(OC(=O)c3ccc(Cl)cc3)c3c(C)oc(C)c3c(=O)c2)cc1 | inactive: -10.5%
Cc1ccc(C(=O)Nc2cccc(-c3nc4cccnc4s3)c2C)cc1 | inactive: -19.4%
COC(=O)c1ccc(Nc2nnc(-c3ccc(C)c(S(=O)(=O)N4CCN(C)CC4)c3)c3ccccc23)cc1 | inactive: 5.39%
Cc1cccc(CN2C(=O)c3ccccc3S(=O)(=O)c3ccc(C(=O)NCCC4=CCCCC4)cc32)c1 | inactive: -15%
CCC1CCCCN1S(=O)(=O)c1ccc(C(=O)Nc2sc3c(c2C(=O)NC)CCC3)cc1 (centres undefined) | inactive: -34.9%
COc1ccc(OCC(=O)OCc2cc(=O)n3cc(C)sc3n2)cc1 | inactive: -9.39%
COc1ccc(NC(=O)c2cc3nc(-c4ccc(C)c(C)c4)cc(C(F)(F)F)n3n2)cc1 | inactive: -6.43%

Structure (SMILES) | activity change, positive = activation
COc1ccccc1CNC(=O)c1oc2ccc(S(=O)(=O)N3CCCCC3)cc2c1C | inactive: -21%
CCc1ccccc1NC(=O)c1ccc2c(O)c(S(=O)(=O)c3ccccc3)c(=O)[nH]c2c1 | inactive: -6.91%
COc1ccc(-c2cc(C(C)=O)c(C)n2CCC(=O)NCc2ccccc2OC)cc1 | inactive: -21.7%
Cc1nn(-c2ccccc2)c(OC(=O)C(C)C)c1Sc1ccccc1 | inactive: -8%
CCc1ccccc1N(C)C(=O)Cc1c(C(=O)O)c(C)cn1C | inactive: -10.7%
Brc1cccc(CNCCSc2nnnn2-c2ccccc2)c1 | inactive: 10.4%
Cc1cc(C)c(NC(=O)C(C)n2nc(-c3ccc(C)c(C)c3)ccc2=O)c(C)c1 (centres undefined) | inactive: -12.4%
Cc1cc(C)cc(OCC(=O)NCCc2nc3ccccc3[nH]2)c1 | inactive: -21.7%
Cc1ccc(NC(=O)Cc2ccc(-n3c(C)nc4cccnc43)cc2)cc1C | inactive: -35%
CCOC(=O)c1cc(-c2ccccc2)n(CCCC(=O)Nc2ccc(C(C)C)cc2)c1C | inactive: -42.4%
COC(=O)c1cccc(-n2c(CCC(=O)O)ccc2-c2ccc(OC)cc2)c1 | inactive: -13.6%
Cc1ccc(Cl)cc1NC(=O)C(C)n1nnc2sc(-c3ccccc3)cc2c1=O (centres undefined) | inactive: 1.73%
COc1cccc(CNC(=O)CCc2cn(Cc3ccccc3Cl)c3ccccc23)c1 | inactive: -25.1%
COc1ccc(Cn2c(SCc3ccc(C(=O)NC4CCCC4)cc3)nc3ccncc32)cc1 | inactive: -27.7%
CNC(=O)c1cc(Oc2ccc(NC(=O)Nc3ccc(Cl)c(C(F)(F)F)c3)c(F)c2)ccn1 | inactive: -32.1%
CCOC(=O)c1c(C)oc2ncnc(N3CCN(c4ccccc4OC)CC3)c12 | inactive: -31.3%
O=C(CC1C(=O)N(c2ccccc2)C(=O)N1CCC1=CCCCC1)Nc1ccc(F)cc1 (centres undefined) | inactive: -35.3%
Cc1ccccc1NC(=O)CSc1nc(-c2ccccc2C)nc2cc(=O)[nH]n12 | inactive: -12%
COc1ccccc1N(CC(=O)NCCSCc1ccccc1)S(=O)(=O)c1ccc(C)cc1 | inactive: -42.4%
COCCNC(=O)Cn1nc(N2CCN(c3ccccc3OC)CC2)ccc1=O | inactive: -3.53%
CCOc1ccc(NC(=O)N2CCN(S(=O)(=O)c3ccc4c(ccn4C)c3)CC2)cc1 | inactive: -17.1%
CCc1ccc(C(=O)c2cn(CC(=O)Nc3ccc(F)cc3)c3ccc(OC)cc3c2=O)cc1 | inactive: -11.4%
CC(=O)N1CCN(c2csc3ccc(F)cc3c2=O)CC1 | inactive: 8.32%
O=C1CN(C(=O)Cc2ccc(F)cc2)C(c2ccccc2)c2cc(Cl)ccc2N1 (centres undefined) | inactive: -20.8%

Structure (SMILES) | activity change, positive = activation
COc1ccc(NC(=O)Cn2c(=O)n(C(C)C)c(=O)c3oc4ccccc4c32)cc1Cl | inactive: -19.2%
COc1ccc(N2CCN(S(=O)(=O)CCNC(=O)Cc3ccc(Cl)cc3)CC2)cc1 | inactive: 8.57%
CCn1cc(S(=O)(=O)c2cc(C)cc(C)c2)c(=O)c2cc(F)c(N3CCCC3)cc21 | inactive: -2.44%
CCOc1ccc(CCNC(=O)c2nnc(Cc3cc(OC)c(OC)c(OC)c3)o2)cc1OCC | inactive: 1.71%
CN(C)c1ccc(C(CNC(=O)c2ccc(C(C)(C)C)cc2)N2CCOCC2)cc1 (centres undefined) | inactive: -17.6%
COc1cc(OC)cc(C(=O)Nc2ccccc2-c2nc3ccccc3s2)c1 | inactive: 0.297%
COc1ccc2[nH]c(C)c(CCNS(=O)(=O)c3cc(F)ccc3OC)c2c1 | inactive: -9.11%
COc1ccc(CCNC(=O)C2(c3cccs3)CCOCC2)cc1OC | inactive: -8.58%
COc1ccc(-c2nc3c4ccccc4n(CC(=O)Nc4cc(F)ccc4F)c(=O)n3n2)cc1 | inactive: 21.3%
CCOc1ccc(OC(=O)c2cn(-c3ccc(C)cc3)c(=O)c3ccccc23)cc1 | inactive: -16.7%
COc1cc(-c2ccno2)ccc1S(=O)(=O)N1CCN(c2ccc(C(C)=O)cc2)CC1 | inactive: -33.7%
COc1ccc(-c2cc(C(F)(F)F)n3nc(C(=O)Nc4cc(Cl)cc(Cl)c4)cc3n2)cc1 | inactive: -3.08% [at 11.5 µM, percent change from vehicle, -100% = no light]
CCCCC(=O)Nc1ccccc1C(=O)OCc1cc(=O)n2nc(C3CCCCC3)sc2n1 | inactive: -23.6%
CCN(CC)C(=O)Cn1c(=O)n(Cc2ccc(C(=O)NCc3ccccc3Cl)cc2)c(=O)c2ccccc21 | inactive: -18.6%
O=C(CSc1nccn1-c1ccc(F)cc1)Nc1ccc(OC(F)(F)F)cc1 | inactive: -18.5%
CCOC(=O)c1c(-c2ccc(Br)cc2)csc1NC(=O)c1ccccc1F | inactive: -11.9%
Cc1ccc2c(C)c(C(=O)N(Cc3ccc(Cl)cc3)C3CCS(=O)(=O)C3)oc2c1 (centres undefined) | inactive: -25.6%
COc1cc2c(cc1OC)C(COc1ccc3c(C)cc(=O)oc3c1)N(C(=O)c1ccc(Cl)cc1)CC2 (centres undefined) | inactive: -4.79%
O=C1CN(C(=O)c2ccccc2C(F)(F)F)C(c2ccccc2)c2cc(F)ccc2N1 (centres undefined) | inactive: -12.8%
O=C1[C@@H]2CSC(c3ccc(C(F)(F)F)cc3)N2C(=O)N1c1ccccc1 (some centres undefined) | inactive: -29.3%
CCCNc1c(NC(=O)c2ccc(OCCC)cc2)c(=O)oc2ccccc12 | inactive: -18.1%
Cc1ccccc1Cn1c(=O)n(Cc2ccc(Cl)cc2)c(=O)c2cccnc21 | inactive: -16.8%
COc1ccc(OC)c(NC(=O)CSC2=Nc3ccccc3C3=NC(CC(=O)NCc4ccc5c(c4)OCO5)C(=O)N23)c1 (centres undefined) | inactive: -22.1%
COc1cc(Cl)c(C)cc1NC(=O)c1sc2nc3n(c(=O)c2c1C)CCCCC3 | inactive: -5.42%

Structure (SMILES) | activity change, positive = activation
CCOC(=O)c1c(NC(=O)c2nc(SC(C)C)ncc2Cl)sc2c1CCCC2 | inactive: 17.1%
Cn1c(SCc2ccc(C(F)(F)F)cc2)nc2c([nH]c3ccccc32)c1=O | inactive: -6.85%
O=c1cc(N2CCN(c3ccc(F)cc3)CC2)[nH]c(=O)n1-c1ccc(Br)cc1 | inactive: -2.34%
COc1cc(NC(=O)N2CCC(CN3CCCC3)CC2)cc(OC)c1OC | inactive: -7.03%
COc1cc(C(=O)NCC(c2cccnc2)N2CCc3ccccc32)cc(OC)c1OC (centres undefined) | inactive: -16.5%
CN(C)c1ccc(C(CNS(=O)(=O)c2ccccc2)N2CCc3ccccc32)cc1 (centres undefined) | inactive: 9.97%
CC(=O)c1c(C)oc2c(Cl)cc(NS(=O)(=O)c3ccc(Cl)cc3)cc12 | inactive: 2.07%
Cc1ccc(CNC(=O)C(CC(C)C)NS(=O)(=O)c2ccc3c(c2)oc(=O)n3C)cc1 (centres undefined) | inactive: -9.1%
Cc1cccc(N2CCN(CCNC(=O)C3COc4ccccc4C3)CC2)c1C (centres undefined) | inactive: -24.7%
O=C(NCc1ccc(Cl)cc1)c1cnc(N2CCCCC2)c2ccccc12 | inactive: -35%
O=C(O)c1cc(-n2c(/C=C\c3ccc(F)cc3)nc3ccccc3c2=O)ccc1Cl | inactive: -12.3%
Cc1ccc(Cc2nc3ccccc3nc2SCC(=O)Nc2ccc3c(c2)OCO3)cc1 | inactive: -33.5%
Cc1ccc(S(=O)(=O)NCCS(=O)(=O)N2CCN(c3ccccc3)CC2)cc1 | inactive: -28.9%
COc1ccc(CNC(=O)C2CCN(Cc3nc(-c4ccc(Cl)cc4)oc3C)CC2)cc1 | inactive: -6.77%
Cc1nc(N2CCOCC2)c2c(C(=O)Nc3cccc(C(F)(F)F)c3)c(C)oc2n1 | inactive: -18.2%
CSc1ccc(CCNC(=O)CCc2c(C)nc3c(c(C)nn3-c3ccccc3)c2C)cc1 | inactive: 2.05%
O=C(NC1CC(=O)N(c2cccc(F)c2)C1)c1ccc(Br)o1 (centres undefined) | inactive: -10.1%
CC(=O)c1ccc(NC(=O)CCSc2nc(-c3ccco3)cc(C(F)(F)F)n2)cc1 | inactive: 10.2%
Cc1c(S(=O)(=O)c2cccc(Cl)c2)nnn1-c1cccc(C(F)(F)F)c1 | inactive: -29.8%
COc1cc(C(=O)Nc2ccc3nc(SCc4ccc(C)cc4)sc3c2)cc(OC)c1OC | inactive: -29.3%
COc1ccc2c(c1OC)C(=O)O[C@@H]2[C@H]1c2c(cc3c(c2OC)OCO3)CCN1C | inactive: -24.2%
CCCC(=O)N1CCN(c2nc3c(OC)ccc(C)c3s2)CC1 | inactive: -10.6%
